# Data as given in article PMC4336329 (PLoS ONE, 2015).
# The whole screen tested about 310,000 compounds, of which about 2,200 (0.71%) showed an effect of 50% or more. Effects have a minus sign here. The list shows a part of the results.
# Target: human ether-à-go-go-related gene (hERG) potassium channel (human, UniProt Q12809)
# Assay: primary screen, population patch clamp on CHO cells stably expressing hERG
# Sequence of human ether-à-go-go-related gene (hERG) potassium channel (Q12809 whole entry, looked up): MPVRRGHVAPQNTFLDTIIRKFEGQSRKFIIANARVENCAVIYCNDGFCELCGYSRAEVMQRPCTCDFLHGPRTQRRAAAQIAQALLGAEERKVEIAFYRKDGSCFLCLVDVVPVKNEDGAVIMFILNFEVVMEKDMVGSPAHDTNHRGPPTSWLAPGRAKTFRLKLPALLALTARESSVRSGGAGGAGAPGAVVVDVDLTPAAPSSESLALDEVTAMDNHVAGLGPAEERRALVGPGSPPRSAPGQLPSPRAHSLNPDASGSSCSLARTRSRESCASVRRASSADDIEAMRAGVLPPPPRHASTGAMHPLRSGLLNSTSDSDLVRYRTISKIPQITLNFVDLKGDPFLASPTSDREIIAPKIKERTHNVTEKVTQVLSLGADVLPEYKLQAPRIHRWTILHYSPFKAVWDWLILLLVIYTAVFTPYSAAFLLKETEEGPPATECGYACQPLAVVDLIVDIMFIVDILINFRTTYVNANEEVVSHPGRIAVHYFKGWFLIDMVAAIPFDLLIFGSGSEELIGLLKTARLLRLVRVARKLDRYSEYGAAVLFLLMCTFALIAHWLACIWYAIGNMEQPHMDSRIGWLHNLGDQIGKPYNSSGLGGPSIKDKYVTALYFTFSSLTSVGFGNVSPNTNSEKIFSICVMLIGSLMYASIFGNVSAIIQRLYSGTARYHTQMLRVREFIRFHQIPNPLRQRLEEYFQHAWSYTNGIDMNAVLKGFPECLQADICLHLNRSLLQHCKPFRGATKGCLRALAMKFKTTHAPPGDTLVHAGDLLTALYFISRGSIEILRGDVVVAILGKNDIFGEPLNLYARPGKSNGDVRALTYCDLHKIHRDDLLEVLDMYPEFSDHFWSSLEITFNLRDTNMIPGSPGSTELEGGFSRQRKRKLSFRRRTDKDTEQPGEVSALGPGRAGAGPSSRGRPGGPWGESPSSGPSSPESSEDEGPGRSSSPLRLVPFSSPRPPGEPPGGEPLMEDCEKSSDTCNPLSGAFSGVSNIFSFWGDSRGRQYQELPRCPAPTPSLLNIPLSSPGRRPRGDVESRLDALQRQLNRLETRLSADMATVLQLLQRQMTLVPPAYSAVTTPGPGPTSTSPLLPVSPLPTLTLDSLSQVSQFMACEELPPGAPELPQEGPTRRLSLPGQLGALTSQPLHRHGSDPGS
row,Structure (SMILES),"hERG current change (%, negative = inhibition) at 1uM [%]"
1,COc1ccc(CCNC(=O)C2CCN(C(=O)N(C)C)CC2)cc1OC,13.6
2,OCCC1CN(Cc2ccc(F)cc2)CCN1CCCc1ccccc1 (stereo not shown),-55
3,COc1ccc(N2CCN(CNC(=O)c3ccccc3)CC2)cc1,10.6
4,CN(C)CCNC(=O)Nc1ccc([N+](=O)[O-])cc1,12.4
5,CC(=O)N(c1nnc(-c2cccc(C)c2)s1)C1CCCC1,12.5
6,CCOC(=O)C/C(C)=N\Nc1nc(-c2ccccc2)cs1,5.58
7,COc1cc(NC(=O)NCC2CCN(Cc3ccccc3Cl)CC2)cc(OC)c1OC,11.6
8,Cc1cc(C)cc(NC(=O)c2ccc(CNc3c(N4CCCC4)c(=O)c3=O)cc2)c1,20.3
9,N#Cc1cc2c(nc1SC1CC(=O)N(c3ccccc3)C1=O)CCC2 (stereo not shown),8.23
10,O=C(N/N=C/c1ccc2c(c1)OCO2)c1cc(-c2ccncc2)nc2ccccc12,10.4
11,CCOc1ccccc1NC(=S)Nc1ccccc1F,10.7
12,CCN(CC)S(=O)(=O)c1ccc(C)c(NC(=O)CSc2ncc(C(F)(F)F)cc2Cl)c1,2.99
13,CCCC(=O)Nc1ccccc1-c1nnn(CC(=O)Nc2ccc(OCC)cc2)n1,2.2
14,Cc1cc(C)n(-c2ccc(C)c(Cl)c2)n1,6.87
15,C=C(C)c1cccc(C(C)(C)NC(=O)Nc2cccnc2)c1,14.6
16,COC(=O)C1=C(c2ccccc2)C[C@@H]2CC[C@H]1N2C(=O)NC1CCCCC1,-2.72
17,c1ccc(CCNc2nc(-c3cccnc3)cs2)cc1,-12
18,COc1cccc(NC(=O)COc2ccc(C(=O)N3CCN(C)CC3)cc2)c1,15.4
19,CC(=O)NCCn1c(SCC(=O)NCC2CCCO2)nc2ccccc2c1=O (stereo not shown),-3.33
20,COc1ccc(-c2c(NC(=O)C(C)C)n(C)c3ccccc3c2=O)cc1,15.7
21,Cc1ccc(N=Nc2c(O)n(CN3CCOCC3)c3ccccc23)cc1,11.1
22,CNC(CC(C)C)C(=O)NC1C(=O)NC(CC(N)=O)C(=O)NC2C(=O)NC3C(=O)NC(C(=O)NC(C(=O)O)c4cc(O)cc(O)c4-c4cc3ccc4O)C(O)c3ccc(c(Cl)c3)Oc3cc2cc(c3OC2OC(CO)C(O)C(O)C2OC2C[C@](C)(N)C(O)C(C)O2)Oc2ccc(cc2Cl)C1O (stereo partly shown),11.1

row,Structure (SMILES),"hERG current change (%, negative = inhibition) at 1uM [%]"
1,O=C1CCC(=O)N1N1C(=O)C2C3c4ccccc4C(c4ccccc43)C2C1=O (stereo not shown),17.5
2,CC1CC(=O)N(CC(=O)N2CCCC2)c2ccccc2S1 (stereo not shown),-10.2
3,Cc1c(C(=O)NCc2n[nH]c(=S)n2-c2ccc(F)cc2)cccc1[N+](=O)[O-],11.3
4,Cc1ccc(S(=O)(=O)N(C)C)cc1NC(=O)CN1C(=O)NC2(CCCc3ccccc32)C1=O (stereo not shown),-0.276
5,COc1ccccc1NC(=O)Cn1c(CCC(=O)O)ccc1-c1ccc(C)cc1,15.1
6,O=C(CCN1C(=O)COc2ccccc21)NCc1ccco1,12.7
7,Cc1cc(=O)n(CNC(=O)c2ccccc2)c(=S)[nH]1,6.87
8,O=C(NCC(c1ccco1)N1CCc2ccccc21)c1c(F)cccc1F (stereo not shown),2.62
9,O=C(COc1ccccc1C(=O)Nc1ccccc1)NCCc1ccccc1,28
10,O=C(CN1CCN(S(=O)(=O)c2ccccc2)CC1)Nc1ccc(Cl)c(Cl)c1,2.02
11,CN1CCN(c2ccc(NC(=O)c3ccc(-c4ccc(Cl)cc4)o3)cc2)CC1,15.1
12,CCOc1cc(C(=O)Nc2ccon2)cc(OCC)c1OCC,-7.83
13,O=C(O)C(=O)O.OC(CN1CCCC1)Cn1ccc2ccccc21 (stereo not shown),10.8
14,C1CCN(Cc2nnnn2CC2CCCO2)CC1.Cl (stereo not shown),12.1
15,CC(=O)Cc1nsc(NC(=O)c2cc(-c3ccccc3Cl)oc2C)n1,10.6
16,NC1=NC2(CCCCCC2)n2c(nc3ccccc32)N1,-23.4
17,O=c1c2ccccc2c(/C=N/NS(=O)(=O)c2ccccc2)c(O)n1-c1ccccn1,6.22
18,COc1ccc(F)c(-c2nc(CN3CCC(c4ccccc4)CC3)c(C)o2)c1,-1.64
19,Cc1ccccc1C(=O)Nc1ccc2c(c1)OCCO2,9.84
20,O=C(NCC1COc2ccccc2O1)C1CCCN(S(=O)(=O)c2cccc3nsnc23)C1 (stereo not shown),5.82
21,CCOC(=O)C(NC(C)=O)(N1CCc2ccccc2C1)C(F)(F)F (stereo not shown),9.57
22,O=C(c1ccc([N+](=O)[O-])cc1)N1C=CC(C(F)(F)F)=NCC1,10.1

row,Structure (SMILES),"hERG current change (%, negative = inhibition) at 1uM [%]"
1,CNC(=S)N(Cc1cc2ccc(OC)cc2[nH]c1=O)CC1CCCO1 (stereo not shown),5.17
2,O=C(CN1C(=O)CSc2ncccc21)N1CCOCC1,-7.7
3,COc1ccc(S(=O)(=O)N2CCOC2CNC(=O)C(=O)NCc2cccnc2)cc1C (stereo not shown),9.37
4,O=C(CCNC(=O)c1ccco1)Nc1ccc(Cl)cc1F,9.55
5,COc1cccc(-c2nnc(SCc3nc4ccccc4[nH]3)n2N)c1,-3.78
6,O=C(CC(NCc1ccccn1)C(=O)O)Nc1ccccc1Cl (stereo not shown),12.3
7,COc1ccc(C)cc1NC(=O)CCCNC(=O)Cn1cnc2sc(C)c(C)c2c1=O,10.2
8,Cc1cc(NC(=O)CSc2ncccn2)no1,14.6
9,CN(c1nc(-c2ccccc2)cs1)C1CCS(=O)(=O)C1 (stereo not shown),-2.58
10,COC(=O)c1ccccc1NC(=O)Nc1c(C)n(C)n(-c2ccccc2)c1=O,7.05
11,Cc1cc2ccccc2c(=O)n1CC(=O)NC1CCCCCC1,18.1
12,COc1ccc(CCC(=O)NCc2ccccc2OC)cc1,8.29
13,CC(=O)Nc1cc2c(cc1NC(=O)Cn1nc(-c3ccccc3)ccc1=O)OCCO2,8.85
14,O=C(NC1CCOc2ccccc21)c1ccccn1 (stereo not shown),9.69
15,CN(C)/C=C1/C(=O)N(c2ccc([N+](=O)[O-])cc2)N=C1c1ccccc1,-0.615
16,COc1ccc(-n2cc(CNCCc3cscn3)c(-c3ccccc3Cl)n2)cc1,-3.2
17,Cc1ccc2c(c1)[C@H]1OCC[C@H]1[C@@H](c1ccncc1)N2,14.5
18,NC(=O)c1ccc(-n2nnnc2SCC(=O)NC2CCCCC2)cc1,4.41
19,Cc1cc(NC(=O)CSc2nc(=O)cc(N)n2-c2ccc(Cl)cc2)no1,9.47
20,Cn1c(N)c(Sc2ccc(F)cc2)c(=O)n(C)c1=O,14.2
21,Cc1ccc2c(c1)C(=O)N(CCCCO)C2=O,9.59
22,CC(C)N(Cc1nc(-c2ccc(Cl)cc2)no1)Cc1nccn1C,-11

row,Structure (SMILES),"hERG current change (%, negative = inhibition) at 1uM [%]"
1,Cc1nn(C)cc1S(=O)(=O)NCc1ccc2c(c1)OCO2,9.84
2,O=C(Nc1nc(-c2ccccn2)cs1)c1ncc(Cl)c(Cl)c1Cl,3.67
3,CCCCCN(C(=O)NC(=O)NC(C)CC)S(C)(=O)=O (stereo not shown),14.4
4,O=c1c2ccccc2ncn1-c1ccccc1[N+](=O)[O-],16.6
5,CCOc1ccc(NC(=O)C2CCN(S(=O)(=O)c3cccnc3)CC2)cc1,4.16
6,CC(=O)N1CCc2cc(S(=O)(=O)NC(C(=O)Nc3ccc4c(c3)OCCO4)C(C)C)ccc21 (stereo not shown),15.6
7,Cc1cc(N2CCCN(C)CC2)nc2cc(Cl)ccc12,-22.8
8,Cc1csc(SCC(=O)NCc2cccs2)n1,6.19
9,CS(=O)(=O)N(CC(=O)Nc1ccccc1C(=O)NCc1ccco1)c1ccc2c(c1)OCCO2,6.3
10,CN(C)CCCN(C(=O)COc1ccc(Cl)cc1)c1nc2ccc(F)cc2s1.Cl,8.45
11,CCN(CC)C(=O)c1cc(-c2ccc3c(c2)OCO3)on1,15.6
12,COc1ccccc1NC(=O)Cn1c(=O)n2nc(C)nc2c2ccccc21,6.94
13,Cc1ccc2c(c1)N(Cc1cccc(Cl)c1)C(=O)c1cccnc1O2,-9.13
14,CCOc1cc(C2CC(=O)N3CN(C4CCCCC4)CSC3=C2C#N)ccc1O (stereo not shown),10.5
15,O=C(CSc1nc2ncc(Cl)cc2[nH]1)Nc1cccc(F)c1,17
16,CC1CC(C)CN(S(=O)(=O)CCNC(=O)c2ccccc2)C1 (stereo not shown),9.67
17,Brc1ccc(C2Nc3cccc4cccc(c34)N2)s1,12.8
18,Cc1ccc(OCC(=O)NC(C)c2ccccc2)cc1 (stereo not shown),6.34
19,O=C(Nc1ccc(N2CCOCC2)nc1)c1ccc(F)cc1,3.3
20,CCCCCCSc1cccc(-c2nc3ccc(Cl)cn3c2NCc2ccccc2)c1.O=C(O)C(F)(F)F,6.25
21,N#C/C(=C\c1cccc([N+](=O)[O-])c1)c1ccccn1,6.88
22,COc1ccc(Cl)cc1N1C(=O)C2CCCN2C1c1cccc(F)c1 (stereo not shown),-4.49
